# From publication PMC13010994 (Nature structural & molecular biology, 2025)
# T1: purified hemagglutinin (HA)-tagged PURB (human (cDNA amplified from H1299 cells), UniProt Q96QR8 1-312)
# T1 sequence (looked up): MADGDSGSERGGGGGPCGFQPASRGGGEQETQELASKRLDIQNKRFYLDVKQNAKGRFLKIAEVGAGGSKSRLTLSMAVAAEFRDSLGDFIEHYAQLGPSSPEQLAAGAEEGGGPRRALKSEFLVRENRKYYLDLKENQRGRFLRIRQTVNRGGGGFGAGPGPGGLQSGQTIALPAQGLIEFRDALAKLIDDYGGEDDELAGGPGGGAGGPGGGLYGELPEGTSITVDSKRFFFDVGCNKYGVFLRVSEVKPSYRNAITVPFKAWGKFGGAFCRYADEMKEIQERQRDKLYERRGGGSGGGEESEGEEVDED
# B1: GST–p53 ([…]) (domain or fragment)
# chain: not shown
# Target: T1, purified hemagglutinin (HA)-tagged PURB
# Experiment: pull-down
binder,measurement,value
B1,binding result,binds
